Out of some 43,000 compounds screened, about 200 (0.47%) were called active. Not shown: some 12% with an inconclusive outcome. Calls follow the shape of the dose curve; as a rule, active = well fitted cell-killing curve with a large enough effect; inconclusive = small, poorly fitted or top-dose-only effect, or effect the other way; inactive = flat fitted curve, though single readings scatter. Some of the results follow.
Assay: Cell viability qHTS assay in S16 Pmp22-F2sN cells; also: nearly all actives have a fitted effect of over 65% in size
Conditions: S16 Pmp22-F2sN Schwann cells viability, CellTiter-Glo, 24 h; series mostly up to 57.5 µM; activity change, negative = cytotoxicity: at the top concentration
Summary of the method: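 Used to flag compounds lowering reporter output through toxicity, this quantitative HTS measures ATP-based CellTiter-Glo luminescence in S16 Pmp22-F2sN Schwann cells after 24 h compound exposure at 37C.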
% is scaled to controls: 0 for no effect and ±100 for the full control effect.

SMILES	activity change, negative = cytotoxicity
COc1ccc2nc3oc(C(=O)N(C)c4ccc(Cl)cc4)cc3cc2c1	inactive: -0.916%
COc1ccc(N2CCN(CC(O)COc3ccc(C(C)C)c(C)c3)CC2)cc1 (centres undefined)	inactive: -19.7%
Cc1nnc(N2CCN(c3ccccc3F)CC2)c2c1nnn2Cc1ccccc1Cl	inactive: -19.2%
CC(C)(C)c1ccc(C(=O)Nc2ccc(-c3nc4cc(Cl)ccc4o3)cc2)cc1	inactive: -0.455%
CCCN1C(=O)CN(C2CCCCC2)C(=O)C1c1ccc(OC)c(OC)c1 (centres undefined)	inactive: 12.9%
COc1ccc(NC(=O)Cn2c(=O)n(CCC(=O)NCCc3ccc(OC)c(OC)c3)c(=O)c3ccccc32)cc1Cl	inactive: -4.03%
COC(=O)c1c(NC(=O)c2nc(SCc3ccc(C)cc3)ncc2Cl)sc2c1CCCC2	inactive: 0.929%
Cc1ccc2c(=O)cc(C(=O)Nc3ccc(S(=O)(=O)Nc4onc(C)c4C)cc3)oc2c1	inactive: -6.45%
COc1cccc([C@@H]2Nc3ccc(C(=O)O)cc3[C@@H]3C=CC[C@@H]32)c1OC	inactive: -6.71%
Cc1cccc(-n2ncc(C(=O)N3CCN(C(=O)c4ccco4)CC3)c2C2CCN(C(=O)OC(C)(C)C)CC2)c1	inactive: -3.08%
COc1cccc(CNC(=O)Cn2c(SCC(=O)Nc3ccc(F)cc3)nc3ccccc32)c1	inactive: -7.9%
Cc1cccc(CS(=O)(=O)Cc2ccc(C(=O)NC(C)c3ccccc3)o2)c1 (centres undefined)	inactive: -13.4%
Cc1ccc2c(c1)-c1c(c(C(=O)NCCc3ccccc3)nn1C)CS2	inactive: -8.33%
CCCN(C(=O)Cc1c(C(=O)O)[nH]c2ccc(Cl)cc12)c1ccc(OCC)cc1	inactive: 5.35%
CC(C)CCNC(=O)c1cccc(-n2cnc3cccnc32)c1	inactive: -1.64%
Cc1ccc(C)c(N2CCN(S(=O)(=O)c3ccc4c(c3)CC(=O)N4C)CC2)c1	inactive: 4.06%
Cc1ccc(C(=O)COC(=O)c2cccc(NC(=O)c3ccc(Br)cc3)c2)cc1	inactive: -1.1%
Cc1ccc(S(=O)(=O)NCC(c2ccco2)N2CCN(c3ccccc3F)CC2)cc1 (centres undefined)	inactive: -1.33%
Cc1cccc(N(CC(=O)Nc2cccc(Cl)c2C)S(C)(=O)=O)c1C	inactive: -3.7%
CCOCCCNC(=O)c1[nH]c2cc(OC)ccc2c1Sc1ccccc1	inactive: 3.14%
COc1ccc(CCC(=O)NCc2nc3cccnc3n2Cc2ccc(C)cc2)cc1	inactive: 4.21%
O=C(NC1CC(=O)N(c2ccc(F)cc2)C1)C1CCCCC1 (centres undefined)	inactive: 5.27%
CCOc1cc(/C=C(\C#N)C(=O)Nc2ccccc2C)ccc1OCc1cc(=O)n2nc(CC)sc2n1	inactive: 0.271%
COc1ccccc1C(=O)Nc1ccccc1SCc1cc(=O)c2ccccc2[nH]1	inactive: -11.2%

SMILES	activity change, negative = cytotoxicity
CCN(CC)C(=O)Cn1c(=O)n(CCCCCC(=O)NCc2ccccc2)c(=O)c2sccc21	inactive: -19.4%
O=C(c1ccc2c(c1)N(Cc1ccccc1F)C(=O)c1ccccc1S2=O)N1CCCCC1 (centres undefined)	inactive: 8.07%
COc1ccc(-c2nc(C)c(CCNC(=O)c3cc(OC)c(OC)c(OC)c3)s2)cc1OC	inactive: 7.33%
O=C(NCc1ccccc1)c1cc2ccccc2o1	inactive: 1.16%
CCOc1ccc(-c2csc(-c3nc(-c4ccc(Br)s4)cs3)n2)cc1	inactive: 6.99%
Cc1ccc(NC(=O)C2CCN(c3nnc(-n4cccc4)s3)CC2)cc1Cl	inactive: 3.85%
Cc1nnc(SCC(=O)NCc2ccc(N(C)C)cc2)c2nn(-c3ccccc3)c(C)c12	inactive: 2.73%
COc1cccc(C(c2c(O)cc(C)n(Cc3ccco3)c2=O)N2CCC(C)CC2)c1 (centres undefined)	inactive: 0.969%
CCOc1ccc(C(=O)c2oc3ccccc3c2NC(=O)c2cc(-c3ccccc3)on2)cc1	inactive: 10.9%
Cc1ccc(NC(=O)C(Cc2ccccc2)n2cccc2)c(C)c1 (centres undefined)	inactive: -1.21%
CSc1cccc(N2C(=O)N(CC(=O)NCc3ccccc3Cl)c3ccccc3S2(=O)=O)c1	inactive: 17.1%
CC(C)CCOc1ccc(Oc2nc(N(C)C)nc(N(C)C)n2)nn1	inactive: -14.6%
COc1ccc2c(CNCc3cccs3)c(C(=O)O)n(Cc3ccc(F)cc3Cl)c2c1	inactive: 3.06%
COc1ccccc1-n1ncc2c(=O)[nH]c(SCC(=O)Nc3cccc(F)c3)nc21	inactive: 6.16%
CCOc1ccccc1N(C)C(=O)Cn1cnc2onc(-c3ccc(F)cc3)c2c1=O	inactive: 2.93%
Cc1ccc(NC(=O)CSc2nc(-c3cccs3)cc(C(F)(F)F)n2)cc1C	inactive: -14.8%
COc1cc(-c2noc(-c3ccc(NC4CCCCC4)c([N+](=O)[O-])c3)n2)cc(OC)c1OC	inactive: 16.3%
CCCCCn1c(=N)c(S(=O)(=O)c2ccccc2)cc2c(=O)n3cccc(C)c3nc21	inactive: 12%
CC(C)Oc1cccc(C(=O)Nc2ccc(-c3nc4cc(Cl)cc(Cl)c4o3)cc2)c1	inactive: -4.72%
Cc1cccc2sc(N(Cc3cccnc3)C(=O)Cc3ccccc3)nc12	inactive: -13.2%
CCSc1nnc2c(n1)OC(c1ccc(OCC(=O)O)cc1)Nc1ccccc1-2 (centres undefined)	inactive: 7.96%
O=C(CCC1N=C2c3ccccc3N=C(SCC(=O)Nc3ccccc3F)N2C1=O)NCc1cccs1 (centres undefined)	inactive: -21.4%
CCOC(=O)C1=C(c2ccccc2)Nc2ncnn2C1c1ccc(Cl)cc1 (centres undefined)	inactive: -12.2%
COc1ccc(S(=O)(=O)N(CCc2ccccc2)CC(=O)Nc2cc(C)ccc2C)cc1	inactive: -1.96%

SMILES	activity change, negative = cytotoxicity
Cc1cccc(NC(=O)CSc2cn(CC(=O)N3CCOCC3)c3ccccc23)c1	inactive: 7.87%
CCc1ccc(NC(=O)C2CCN(S(=O)(=O)c3c(C)noc3/C=C/c3cccs3)CC2)cc1	inactive: 10.5%
CCn1cc(C(=O)NCCOC)c(=O)c2cc(S(=O)(=O)N3CCOCC3)ccc21	inactive: -4.73%
COc1ccc(CNC(=O)c2ccc3c(c2)NC(=O)C(CS(=O)(=O)Cc2ccccc2Cl)N3)cc1 (centres undefined)	inactive: -0.657%
CCOc1ccccc1CNC(=O)CN1C(=O)CCn2nc(-c3cn(C)c4ccccc34)cc21	inactive: 3.67%
O=C(c1ccc2c(c1)N(Cc1cccc(Cl)c1)C(=O)c1ccccc1S2(=O)=O)N1CCC(Cc2ccccc2)CC1	inactive: -0.639%
COc1cc(Cl)c(C)cc1Nc1c2c(nc3ccccc13)CCC2	inactive: 10.2%
Cc1nc2ccc(S(=O)(=O)N(CC(=O)Nc3ccc(Cl)cc3)Cc3ccccc3)cc2s1	inactive: -0.3%
CC(=O)Nc1ccc(S(=O)(=O)N2CCN(c3ccccc3)CC2)cc1	inactive: 16.1%
COc1ccc(C)cc1NC(=O)C1CCCN(S(=O)(=O)c2ccc3c(c2)oc(=O)n3C)C1 (centres undefined)	inactive: 0.249%
COc1cccc(-c2nnc3n(CCc4ccccc4)c(=O)c4ccccc4n23)c1O	inactive: -22.2%
CCOC(=O)CC(=O)CSc1nc2ccccc2c(=O)n1CCc1ccccc1	inactive: -3.99%
COc1cccc(CNC(=O)CN(c2ccc(C(C)C)cc2)S(=O)(=O)c2c(C)n[nH]c2C)c1	inactive: -14.5%
Cn1c(=O)c(=O)n(C)c2cc(N3CCCC3)c(NC(=O)c3ccc(C(C)(C)C)cc3)cc21	inactive: -2.93%
Cc1ccc(SCc2nc(-c3ccc(C(=O)NCc4ccccc4Cl)cc3)oc2C)cc1	inactive: -14.9%
CC(=O)Nc1cccc(NC(=O)C2(c3cccs3)CCOCC2)c1	inactive: 16.1%
Cn1cc(S(=O)(=O)N2CCCC2)cc1C(=O)Nc1ccc(C(F)(F)F)cc1	inactive: -5.67%
COc1ccccc1-c1nnc(C2CCN(S(=O)(=O)c3ccccc3)CC2)o1	inactive: 8.12%
O=C(Nc1ccc(NC(=O)c2ccc(Br)cc2)c(Cl)c1)c1ccc(Br)cc1	inactive: 8.17%
COc1ccc(C(=O)Nc2nc3ccc(S(=O)(=O)N4CCCC4)cc3s2)cc1	inactive: -0.687%
CCCCCn1c(=O)[nH]c2cc(C(=O)Nc3ccc(OC)c(OC)c3)ccc2c1=O	inactive: 3.62%
COc1cccc(N2CCN(C(=O)Cn3cnc4onc(-c5ccc(F)cc5)c4c3=O)CC2)c1	inactive: -8.54%
COc1cccc(-c2nc(CS(=O)(=O)CC(=O)NCCCN3CCN(C)CC3)c(C)o2)c1	inactive: -1.37%
CCc1nn(CC(=O)N2CCN(c3cccc(C(F)(F)F)c3)CC2)c(=O)c2cc3occc3n12	inactive: -4.12%

SMILES	activity change, negative = cytotoxicity
COc1cccc2cc(-c3nnc(-c4ccc(Cl)cc4)o3)c(=O)oc12	inactive: -0.0034%
COc1ccc(CCNC(=O)Cn2nnc(-c3cccc(C(F)(F)F)c3)n2)cc1OC	inactive: -3.5%
Cc1ccc(-n2nc(CO)c(C(=O)NCCO)n2)cc1	inactive: 9.16%
CC(CNC(=O)c1ccc(Cn2c(SCc3ccccc3)nc3cccnc32)cc1)c1ccccc1 (centres undefined)	inactive: -5.52%
Cc1cccc(NS(=O)(=O)c2nnc(NC(=O)C3CCCCC3)s2)c1	inactive: -6.39%
COc1cc2[nH]c(=O)n(Cc3ccc(C(=O)N4CCN(c5cccc(C)c5C)CC4)cc3)c(=O)c2cc1OC	inactive: 0.192%
COc1ccc(CNC(=O)c2cc(Nc3ccc(OC)cc3OC)nc3ccccc23)cc1	inactive: -22.2%
CCOC(=O)c1ccc(NC(=O)c2ccc3c(c2)CCN3S(=O)(=O)c2ccc(Cl)cc2)cc1	inactive: 1.44%
O=C(CSc1n[nH]c(-c2ccccc2Cl)n1)N1CCN(c2ccc(F)cc2)CC1	inactive: -0.46%
CCOC(=O)c1ccc(N2C(=O)c3n[nH]c(C)c3C2c2ccc(C(C)C)cc2)cc1 (centres undefined)	inactive: 2.63%
CC(C)c1nn2c(=O)cc(COC(=O)c3ccc(NC(=O)c4ccccc4Cl)cc3)nc2s1	inactive: -2.49%
CCOc1ccc(NC(=O)c2oc3ccccc3c2NC(=O)Cc2ccc(OC)c(OC)c2)cc1	inactive: 6.01%
COc1ccc2oc(=O)cc(CN3CCN(C(=O)c4ccccc4)CC3)c2c1	inactive: -3.38%
O=C(Nc1ccc(O)c(-c2nc3ccccc3o2)c1)c1cccs1	inactive: 14.7%
COc1ccccc1CNc1nc(-c2ccco2)nn1S(=O)(=O)c1ccc(C)cc1	inactive: -11.8%
Clc1ccc(CN2CCc3nc(Nc4ccc5c(c4)OCCO5)ncc3C2)cc1	inactive: 0.847%
CCOc1ccccc1CN(CCc1ccc2c(c1)OCO2)Cc1cc(OC)c(OC)cc1OC	inactive: 5.25%
CC(C)NC(=O)c1nn(C)c2c1CS(=O)(=O)c1ccccc1-2	inactive: -4.56%
COC(=O)c1cc(Cl)ccc1NC(=O)Cn1c(C)cc(C)c(C#N)c1=O	inactive: -0.151%
O=C(c1ccc(F)cc1)N1c2ncnn2C2(CCCCC2)[C@@H]2CCCC[C@@H]21	inactive: -21.2%
COc1ccc(CNC(=O)C(=O)NCC(c2cccs2)S(=O)(=O)c2ccc(C)cc2)cc1 (centres undefined)	inactive: 18.3%
CCn1c(SCC(=O)Nc2cccc(Cl)c2)nnc1-c1nonc1NC(C)=O	inactive: -0.531%

From PubChem BioAssay AID1508642 (National Center for Advancing Translational Sciences (NCATS), 2021)
